T1: kLANA(1013–1149) (Kaposi sarcoma-associated herpesvirus …, UniProt Q76SB0 1013-1149)
T1 construct: source: E. coli BL21(DE3), purified (Ni-NTA with guanidine gradient, thrombin cleavage)
T1 sequence: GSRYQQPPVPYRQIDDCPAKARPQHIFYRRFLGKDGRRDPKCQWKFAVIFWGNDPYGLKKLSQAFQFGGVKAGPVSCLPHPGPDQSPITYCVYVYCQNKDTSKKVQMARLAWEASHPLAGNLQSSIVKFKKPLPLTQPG

T2: kLANA(996–1153) (Kaposi sarcoma-associated herpesvirus …, UniProt Q76SB0 996-1153)
T2 construct: source: E. coli BL21(DE3), purified (Ni-NTA with guanidine gradient, thrombin cleavage)
T2 sequence: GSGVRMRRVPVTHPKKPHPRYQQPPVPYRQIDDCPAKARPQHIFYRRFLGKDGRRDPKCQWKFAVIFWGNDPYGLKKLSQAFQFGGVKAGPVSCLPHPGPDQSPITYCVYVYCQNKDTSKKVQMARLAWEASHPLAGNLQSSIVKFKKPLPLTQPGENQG

B1: BRD4 ET([…]), unlabeled, with N-terminal GSGGGPGS (domain or fragment)
chain: not shown
notes: also called BRD4([…]); BRD4 ET domain; source: E. coli BL21(DE3), purified (Ni-NTA with guanidine gradient, thrombin cleavage)
B2: BRD4([…]) (domain or fragment)
chain: not shown
notes: also called 15N-labeled ET fragment lacking the serine stretch; source: E. coli BL21(DE3), purified (Ni-NTA with guanidine gradient, thrombin cleavage)
B3: 15N-BRD4 ET([…]), with N-terminal GSGS (domain or fragment)
chain: not shown
notes: also called 15N-BRD4([…]); source: E. coli BL21(DE3), purified (Ni-NTA with guanidine gradient, thrombin cleavage)

Experiments:
Settings in all cases: both partners purified
kLANA(1013–1149) = target: T1, kLANA(1013–1149); assay: NMR titration
kLANA(996–1153) [1] = target: T2, kLANA(996–1153); assay: NMR titration; [1H,15N]-HSQC of 0.25 mM BRD4 fragments without and with 0.25 mM unlabeled kLANA CTD at 100 mM NaCl
kLANA(996–1153) [2] = target: T2, kLANA(996–1153); assay: NMR titration

Row | Binder | binding result (kLANA(1013–1149)) | binding result (kLANA(996–1153) [1]) | binding result (kLANA(996–1153) [2])
1 | B1 | binds | – | –
2 | B2 | – | binds | –
3 | B3 | binds | – | binds
